The source of these data is publication PMC10726135.

The other results are listed elsewhere or left out. At the low end of the ranking, values are background and their order means little. The protein was read in a cell extract, so binding may be indirect.

The assay has as its target T1, HNF4alpha8 (COS-7 nuclear extract) (UniProt P41235-5).
T1 sequence: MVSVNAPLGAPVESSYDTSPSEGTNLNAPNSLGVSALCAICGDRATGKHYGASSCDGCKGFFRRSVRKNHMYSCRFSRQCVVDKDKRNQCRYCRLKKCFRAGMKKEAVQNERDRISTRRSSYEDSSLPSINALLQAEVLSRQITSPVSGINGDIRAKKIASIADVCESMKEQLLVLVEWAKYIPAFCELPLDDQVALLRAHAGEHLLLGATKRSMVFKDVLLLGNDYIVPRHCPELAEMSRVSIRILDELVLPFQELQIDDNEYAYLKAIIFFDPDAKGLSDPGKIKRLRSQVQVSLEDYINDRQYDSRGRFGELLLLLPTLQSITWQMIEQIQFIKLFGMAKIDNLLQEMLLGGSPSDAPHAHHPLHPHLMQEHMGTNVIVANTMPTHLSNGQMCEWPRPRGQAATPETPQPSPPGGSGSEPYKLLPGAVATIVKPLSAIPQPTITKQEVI
In words: protein-binding microarray. Particulars: COS-7 nuclear extract on double-stranded Agilent 4x180k PBM; binding buffer, salt, pH and temperature not given; high values mean tight binding; double strand, one strand shown; sequences stand for … in …GCCTAGGGAGATTAGAGTATCGGTCGA
With TCTGTATGTCTAAGGTTTCTCAGCCCCATC, the binding signal (log2 normalized intensity) was found to be 4.22.

Regarding GATCAAAGGCCACCGTTGGAATGTTCCAAG, the binding signal (log2 normalized intensity) came to 1.58.

CCAAAGGTTAAGGAAACAAGGGTACCAACA: the binding signal (log2 normalized intensity) was -1.48.

Consider CTTGGCCTCAATGTTTACACTTCCATGTTT, for which the binding signal (log2 normalized intensity) is 0.861. The same measure for CTGATCCTCTCCATGCAGCCAGGGTCAGGA: 2.37; for ACGTTTTCCTGCTGACCCTCTCCCCACCAT: 4.76; for AGACATCATATTTGTTATATTTGTTATACC: 1.55. The same measure for CCCATCGACCTTTGCTCCCGACTCTGAGGC: 5.95; for ATAAGGCTAAGTGGAGGATTTGGGTGATGT: 0.76; for ATACCCATTCACATGACCTTTGTCCGTTCC: 7.49.

Consider CTGTGGACTCTGAGCCTCCTCCCTCTCTCT, for which the binding signal (log2 normalized intensity) was 2.41.

Regarding GTCTCCCTACCTCTGCACAGCTCCAGACAT, the binding signal (log2 normalized intensity) was -0.945. Take AATATCCACACAAACCCAGTTTGCATTTTC: the binding signal (log2 normalized intensity) was -0.51. The same measure for CTAATCAGGCCTCCCTCCCTCCCCCATTAG: 4.79; for AAAATCAGTCTCAGTGGGCTAAACATCAAG: -1.07; for CTGGGTTTCTTCCCTAATGGACATCTCTAG: 0.0618.

With GACACAAAAGGGTACAGCAGCATAAAGGAC, the binding signal (log2 normalized intensity) is -1.19. In the case of ACAGAGCTATTTTAGGGTAAAGATCTTGGG it was 0.642.

As to TCCCCCACCTACTGTCTCCTAATCAGCAAC, the binding signal (log2 normalized intensity) was determined as 2.03. The same measure for GGGTGTAAACCTGGTGGAAGATAAGGGTTA: 0.213; for TGGGGTATCAGGTGGTGATGGTGGGAGGGA: -0.797; for ATTTGAGCCCAGGAGTTCAAGACTGGTATC: 0.557. In the case of GCCACTGCCTAGATAAAAGGGTCTTAGTAT it was 0.0165; in that of AATACTTGGAGACAGTGAGACGCAAGCATA, -1.35. The same measure for AGCACTCAAATGATCAAAGAAGCCCAGGGC: -1.42; for AAAATCACTTGGATAGCGCGTGGCCCAAGG: -1.34. Consider AGAGGGCCTCTGCTTGTCTTGGTTGTAGAA, for which the binding signal (log2 normalized intensity) amounted to 0.69.

For GCTATCAATGACCCATGTTTGCCCTTGATA, the binding signal (log2 normalized intensity) is 3.01. In the case of AGCTCTTTGCACAGTACTGATCTGGGGCCT it was -1.21; in that of CATAGTGGGTTTCGGTGTCATCTAGACCTG, 1.56. Turning to TAAAGTCTGTTTGATTCCATGCTGATAATG, the binding signal (log2 normalized intensity) worked out at 0.985. For the sequence AAAGATCATCTGGTGGCTTGAGTTGGAGAA, the binding signal (log2 normalized intensity) turned out to be 0.586. In the case of GGGACAAGGCTGTCCCCCATCTCATCCTGG it was 0.358. The same measure for TCAGATATCTGAATGTACCTTTGAAACCTA: 3.79; for GAGAAGGCAGGTAGAAGAAGAGGTCAGCTT: 1.04; for CATCCTGAGGCAAAATTCCTCGCTAGCTGT: -1.21. In the case of AAGAGAGAAAGAAACAGGGGATGTTGATTC it was -1.28. On to GCTGACGCCGCCTCTGCCTCTTGACCCCTT, for which the binding signal (log2 normalized intensity) was found to be 6.14.

Take CTTGTGGATCCTTGGAGGACCTTGGGTTCA: the binding signal (log2 normalized intensity) was determined as 3.21.

For GATGGGGGCAAAGGTTGACACCTAGCTGAG, the binding signal (log2 normalized intensity) turned out to be 5.11. The same measure for AATATCTTCCCATAAAACCTAGACAGAAGC: -1.36. With CACAGGAGAGGAGAAAGAGCAATCTCTCAT, the binding signal (log2 normalized intensity) was -1.39. The same measure for TGGGAGCTAATGAGCACATTCTTCAATATC: -1.2; for TAGCCACTCTACAACAAAGGAAATGAAGCA: -1.08; for TTTCACTTTTTCCCTGCATGTTCACCTCTT: 1.68. In the case of GGCGTCTCTTAGTATTACCATGTCCTGTGA it was 1.49; in that of GGAAAGCTATCCCGGCCAACGGTCGGAAGG, -1.1; in that of ATGAGATAAGATGAAGCTCTCAGAATAGCA, -1.41.

Regarding TTAGAGTCCAGACACAAAGAGACAAAGCTT, the binding signal (log2 normalized intensity) is -1.27. In the case of ATCCCCAGTATAAACAACACAGAACTAGCC it was -1.46; in that of CTTTTCTTCCCCCCTCCCTCCGCAACCTTT, 5.88. For the sequence CAGGGTGACGTCATTGGAAATCCGAAATAA, the binding signal (log2 normalized intensity) is -0.182. The same measure for TTAGTCCCTAAGTCTTTCAAAGAAAAGCCT: -0.975; for GTCCAGCCACAATTAATGTACCCCCGGAAA: 4.46; for TCAAATGCAAAGGCAAACAGATGAAGTACT: -1.37.

CACCTGGCCAGCGACTTTAGGGGCCAAGGG: the binding signal (log2 normalized intensity) was 0.115.

As for TCTTCCCATCTAACTGCCCCTGATATCTGA, the binding signal (log2 normalized intensity) came out at 3.01.

With TGAGGTAGTTGAGTGCCTCCATTTCACAAA, the binding signal (log2 normalized intensity) was -1.13. Take AGGTGGAGATAAGGAATTTGTTAAGAACTG: the binding signal (log2 normalized intensity) was -1.17. Take CTGCCGAGGTGTCCTGTAAATAGTGTGTCA: the binding signal (log2 normalized intensity) is 1.42. The same measure for CTTCCAGGGAATAAAGAACTCTAAGCAGCG: -1.26; for CCTCAATGTTTACACTTCCATGTTTGTCTT: 1.7.

With GGAGATGCCGTTAAGCAGATAAGGTGCGGG, the binding signal (log2 normalized intensity) was -1.35.

With TGAATATGTACATGGACTTTGAACCAAGAT, the binding signal (log2 normalized intensity) amounted to 8.87.

With ATATTCAAACAGGTCAAGCAATGCTGGGGA, the binding signal (log2 normalized intensity) is -0.636.

For GGCAAAGGGCAAGGCGTCTCTGCCAAGGGG, the binding signal (log2 normalized intensity) is -1.41.

Turning to AAGCTTCACTGACATTCCAGCCACTAAGAA, the binding signal (log2 normalized intensity) was -1.36. In the case of CAAATTCCTCAATCCAGTCATCTCACACAA it was -1.13.

GGTTGGGGCCTCCCTCCGTGGGGCTCCTTT: the binding signal (log2 normalized intensity) was -1.18. The same measure for GCCATTCCAGAAGTAGGATGGGGAGGGGGC: -1.32; for CAAGCCAGTTTCCAGGGAGGAGAGAAGGGC: -1.26. In the case of GATTAAACTTTAGTCAGATTCCTCTGAGTC it was 1.57; in that of TTTCTTAATTGCCCTTTGCCCTTTGCCCAA, 8.84.
